The RNAGym collection of RNA variant scans (doi:10.7554/elife.90254)
Read counts are not given, so values of variants with three or more changes are uncertain.

B1: LINE1-mini (parent)
chain: GGCAGAGCUCAACACAGCGUGGCAAAGUGGCUGUGGCUAGACUGCC

Variants of: B1
Test: self-cleavage, relative activity (ratio to wild type); higher = more cleavage; in vitro, sequencing; the parent is a self-cleaving ribozyme

Row | Variant | self-cleavage
1 | GGUAGAGCUCAACACAGCCUGGCAAAGUGGCUGUGGCUAGACAGCC [C3U G19C U43A] | 0.04
2 | GGCCGAGCUCCCCACAGCGUGGCAAUGUGCCUGUGGCUAGACUGCC [A4C A11C A12C A26U G30C] | 0.02
3 | GGCCGAGCUCCACACAGCGUGGCGAAUUCGCUGUGGCUAGAUUGCC [A4C A11C A24G G27U G29C C42U] | 0
4 | GGUAGAGCUCAACACAACGCGGCAAAGUGGCAGUGGCUAGACUGCC [C3U G17A U20C U32A] | 0.05
5 | GGUAGAACUCAAUAAAGCGUGGUCAAGUGGGUGUUGCUAGACUGCC [C3U G7A C13U C15A C23U A24C C31G G35U] | 0.01
6 | GGCCGUACUCAACACAGCGUGGCAAAGUGGCUGUGGCUAGACUGCC [A4C A6U G7A] | 0.47
7 | GGUAGAGCUCAACACAGCUUGGCCAAGUGGCUGUGGCUAGACUGCC [C3U G19U A24C] | 0.44
8 | GGUAUAGCUCAACACAGCGUGGCAAAGUGGCUGCGGCUAGACUGCC [C3U G5U U34C] | 0.03
9 | GGUAGAGCUCAACACAGCCUAGCAAAGUGGCUGUGGCUAGCCUGCC [C3U G19C G21A A41C] | 0.05
10 | GGUAGAUCUCAACACGGCGUGGCAAAGUGGCUAUGACUAGACUGCC [C3U G7U A16G G33A G36A] | 0.04
11 | GGUAGAGCCCAACACAGCGUGGCUAAGUGGCUUUGGCUAGACUGCC [C3U U9C A24U G33U] | 0.03
12 | GGUAGAGCUCAACACAGCGAGCCAAAGUGGCUGUGGCUAGACUGCC [C3U U20A G22C] | 0.09
13 | GGUAGAACUCAACACUGCGUGGCAAAGCGGCUGUGGGUAGACUACC [C3U G7A A16U U28C C37G G44A] | 0.01
14 | GGUAGAGCUCAACACAACGUGGCAAAGUGGAUGUGGCUAGACUGCC [C3U G17A C31A] | 0.02
15 | GGCCGGGCUCAACACAGCGUGGCAAAGUGGCGGUGCCUAGACUGCC [A4C A6G U32G G36C] | 0.03
16 | GGUAGAGCUCAACACAGCGUGGCAAAGUGGCGGUGGCUAGACUACC [C3U U32G G44A] | 0.34
17 | GGUAGAGCUCAACACAGCGUGGCAAAGUGGCUGUGGCUAUACAGCC [C3U G40U U43A] | 0.24
18 | GGUAGAGCUCAACACAGCGUGGCAAAGUGGCUAUUGUUAGACUGCC [C3U G33A G35U C37U] | 0.12
19 | GGUAGACCUCAACACAGCGUGGCAAAGUGGCUUUGGCUAGGCUGCU [C3U G7C G33U A41G C46U] | 0.06

Row | Variant | self-cleavage
20 | GGUAGAGCUCAACACAGCGUGCCAAAGUGGCUAUGGCUAGACUGCC [C3U G22C G33A] | 0.14
21 | GGCCGGGCGCAACACAGCGUGGCAAAGUGGAUCUGGCAGGACUGCC [A4C A6G U9G C31A G33C U38A A39G] | 0.47
22 | GGUAGAGCUCAACACAGCGUGGCAAACUGGCUAUGGCUAGAUUGCC [C3U G27C G33A C42U] | 0.08
23 | GGUAGAGCUCAACACAGCGCGGCAAAGUGGCUGUCGCUAGAAUGCC [C3U U20C G35C C42A] | 0.04
24 | GGUAGAGCUCAACACAGCGCGGCAAAGUGGAUGUGGCUAGACAGCC [C3U U20C C31A U43A] | 0.1
25 | GGUAGAACUUAACACAGCCUGGCAAAGUGGCUGUGGCUAGACUGGC [C3U G7A C10U G19C C45G] | 0.12
26 | GGUAGAGCUCAACACAGCUUGGCAAAGUGUCUGUGGCUAGACUGCC [C3U G19U G30U] | 0.18
27 | GGCCGGGCUCAACACAGCGUGGUAAAGUGCCUGUGGCUAGACUUCC [A4C A6G C23U G30C G44U] | 0.62
28 | GGCCGGGCUCAACACAGCGUGGCAAUGUGGCUGUGGCUAGACUGGC [A4C A6G A26U C45G] | 0.14
29 | GGUAGAGCUCAACACAGCGUGGCAAAGUGGCUGUGGCAGGACUGCC [C3U U38A A39G] | 0.15
30 | GGUAGAGCCCAACACAGCGUGGCAAAGGGUCUGUCGAUACACUGCC [C3U U9C U28G G30U G35C C37A G40C] | 0.03
31 | GGUAGAGCUCAACACAGCGUUGCAUAGUGGCUGUGGCUAGACUGCC [C3U G21U A25U] | 0.34
32 | GGUAGAGCCCAACACAGCGUGGCAAAGUGGCUGUGGCGAGACUGCC [C3U U9C U38G] | 0.04
33 | GGUAUAGCUCAACACAGCGUGGCAAAGUGACUGUGGCUAGACUGCC [C3U G5U G30A] | 0.15
34 | GGCCGCGCACAACACAGCGUGGCAAAGUGGCUGUGGUUAGACUGCC [A4C A6C U9A C37U] | 0.04
35 | GGUAGAGCUCAACACACCGUGGCAAAGUGGCUGUGGCUAGACUCAG [C3U G17C G44C C45A C46G] | 0.05
36 | GGUAGAGCUCAACACAGCGUUACAAAGUGGCUGUGGCUAGAAUGCC [C3U G21U G22A C42A] | 0.09
37 | GGUAGAGCUCAACACAGCGUGCCAAAAUCGCCGUGGCUAGACUGCC [C3U G22C G27A G29C U32C] | 0.11
38 | GGUAGAGCUCAACACAGCGUGCGAAAGUGGCUGUGGCUAGACUACC [C3U G22C C23G G44A] | 0.13

Row | Variant | self-cleavage
39 | GGUAGACCUCAACACAGCUUGGCAAAGUGGCUGUGGCUAGACAGCC [C3U G7C G19U U43A] | 0.15
40 | GGUAGAACUCAACCCAGGGUGGCAAAGUGGCUGUGGCUAUACUGGC [C3U G7A A14C C18G G40U C45G] | 0.09
41 | GGUAGAGCUCAACACAGCGCCGCAAAGUGGCUGUGGCUAGACUGCC [C3U U20C G21C] | 0.3
42 | GGUAGACCUCAACACAGCGUGGCAAAGUGGCUGUGGAUAGACUGCC [C3U G7C C37A] | 0.04
43 | GGUAGAGCUCAACACAGCGUAGCAUCGUGGCUGUGGCUAAACUGAC [C3U G21A A25U A26C G40A C45A] | 0.74
44 | GGUAGAGCUCAACACAGCGUGGCAAAGUGGCGGUGACUAGAUUGCC [C3U U32G G36A C42U] | 0.05
45 | GGUAGAGCUCAACACAACGUGGCAAAGUGUCUGUGGCUAGACUGCC [C3U G17A G30U] | 0.12
46 | GGUAGAGCUCAACACAGCGUGGCAAAGUGGCUGCGGCUAGAUUGCC [C3U U34C C42U] | 0.34
47 | GGUAGAUCUCAACACAGCGUGGCAAAGUGGCUGUGGCUAGGCUGCC [C3U G7U A41G] | 0.03
48 | GGUAGAGCUCAACACAGCGUGGCAAAGUGUCUGUGGCUAGACUGAC [C3U G30U C45A] | 0.06
49 | GGCCGGGCUCAACACAGCGUGGCAAAGUGUCUCUGGCUAGACUGCC [A4C A6G G30U G33C] | 0.02
50 | GGUAGAGCGCAACAUAGCGUGGCAAAGUGGCUGUGCCUAGACUGCC [C3U U9G C15U G36C] | 0.07
51 | GGUAGAGCACAACACAACGUGGGAAAGUGGCUGUGGCUUGACUGCC [C3U U9A G17A C23G A39U] | 0.05
52 | GGUAGAGCCCAGCACAGCGUGGCAAAGUGGCCGUGGCUAGACUGCC [C3U U9C A12G U32C] | 0.07
53 | GGUAGAGCUCAACACAGCGUGUCAAAGUGACUGUGGCUAGACUGCC [C3U G22U G30A] | 0.75
54 | GGUAGAACUCAUCACAGCGUCGCAAAGUGGCUGUGGCCAGACUGCC [C3U G7A A12U G21C U38C] | 0.25
55 | GGUAGAUCUCAACACAGCGGGGCAGAGGGGCUAUGGCUAGACUGCC [C3U G7U U20G A25G U28G G33A] | 0.12
56 | GGUAGAGCACAACACAGCGUGGCAAAGUGGCUGUGGCUAGACUACC [C3U U9A G44A] | 0.05
